The whole screen tested about 390,000 compounds, of which about 2,200 (0.56%) were called active. Inconclusive means that the source gave no clear call. Such entries were picked first, then a sample of the others. Calls come from the whole dose curve; as a rule, active = well fitted inhibition curve with a large enough effect; inconclusive = small, poorly fitted or top-dose-only effect; inactive = no such curve, though single readings can be large or run the other way. Potencies of inconclusive entries are doubtful fits and often do not repeat.
The compounds below were run against Chromobox protein homolog 1 (Homo sapiens) (UniProt P83916) (assay: HTS for Inhibitors of HP1-beta Chromodomain Interactions with Methylated Histone Tails). Conditions: AlphaScreen HP1-beta / biotin-H3K9me3 peptide binding; series mostly up to 114 µM; activity change, negative = inhibition: at the top concentration.
Outline: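 AlphaScreen: HP1-beta (50 nM) preformed 30 min with biotin-H3(1-18)K9me3 peptide (50 nM) in PBS pH 7.4, 0.01% Tween-20. Compound added for 30 min at RT, then streptavidin donor/nickel chelate acceptor beads (10 ug/mL) for 30 min.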
Note: nearly all actives have a fitted effect of over 70% in size.
Potency is the fitted concentration of half-maximal effect; tags give direction and shape of the fitted curve.

UniProt P83916, sequence (P83916 whole entry, looked up): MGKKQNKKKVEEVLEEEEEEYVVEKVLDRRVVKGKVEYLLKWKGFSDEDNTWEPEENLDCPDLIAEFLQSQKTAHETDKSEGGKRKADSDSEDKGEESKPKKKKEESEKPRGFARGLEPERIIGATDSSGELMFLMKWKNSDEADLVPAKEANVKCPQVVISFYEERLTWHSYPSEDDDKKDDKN

Row | SMILES | activity change, negative = inhibition | Potency
1 | CCOc1ccccc1CNC(=O)CCCN1C(=O)CCn2nc(-c3cccn3C)cc21 | inactive: -9.38% [at 57 µM] | 
2 | S=C(NCCCc1cnc[nH]1)NCCCN(Cc1ccc(Cl)cc1)c1cc(-c2ccccc2)ccn1 |  | inconclusive: 31.6 µM [inhibitor, full curve]
3 | C=CCSc1nc2c(c(=O)[nH]c(=O)n2C)n1CC |  | inconclusive: 31.6 µM [inhibitor, partial curve, poor fit]
4 | OC(CNc1ccccc1)Cn1ccc2ccccc21 (configuration not stated) |  | inconclusive: 56.2 µM [inhibitor, partial curve, poor fit]
5 | COC(=O)c1sc(-c2ccc(C(C)(C)C)cc2)cc1NC(=O)CCC(=O)O | inactive: 57.8% | 
6 | CN(CC(=O)Nc1cccc(F)c1)C(=O)c1ccc(NC2CC2)c([N+](=O)[O-])c1 |  | inconclusive: 70.8 µM [inhibitor, partial curve]
7 | CCN(CC)S(=O)(=O)c1ccc(/C=C/C(=O)Nc2ccc(N3CCOCC3)cc2)cc1 | inactive: -17.6% | 
8 | O=C(Nc1ccc(Cl)cc1)N1CCc2[nH]c3ccccc3c2C1 |  | inconclusive: 79.4 µM [inhibitor, single point]
9 | CC1CN(CCOc2ccc([N+](=O)[O-])cc2)CC(C)O1 (configuration not stated) |  | inconclusive: 15.8 µM [inhibitor, partial curve, poor fit]
10 | N#Cc1c(NC(=O)CSc2n[nH]c(N)n2)oc(-c2ccccc2)c1-c1ccccc1 |  | inconclusive: 79.4 µM [inhibitor, single point]
11 | N#CCc1ccc(NC(=O)/C=C/c2ccc([N+](=O)[O-])o2)cc1 | inactive: 16.5% | 
12 | COc1ccc(Cl)cc1Nc1sc(C(=O)c2ccccc2)c(N)c1C(=O)Nc1ccccc1 |  | inconclusive: 50.1 µM [inhibitor, partial curve]
13 | CCc1ccc(-c2cn3c(n2)sc2cc(C(=O)NC4CCCCCC4)ccc23)cc1 | inactive: 5.37% | 
14 | CCN(Cc1ccccc1)S(=O)(=O)c1ccc(C(=O)N(CCCN(C)C)c2nc3cc4c(cc3s2)OCCO4)cc1 |  | inconclusive: 50.1 µM [inhibitor, partial curve]
15 | CN(C(=O)COC(=O)CSc1ccc([N+](=O)[O-])cc1)c1ccccc1 |  | inconclusive: 56.2 µM [inhibitor, partial curve, poor fit]
16 | CCN(CC)c1ccc(NC(=O)C(C)C)cc1 | inactive: 5.09% | 
17 | COCCNC(=O)CN1CCCCCC1 |  | inconclusive: 56.2 µM [inhibitor, single point]
18 | Brc1ccc(CSc2nnc(-c3cnccn3)n2Cc2ccco2)cc1 | inactive: -11.1% | 
19 | CC1(C)OC2C(CO)OC(n3cnc4c(=S)nc[nH]c43)C2O1 (configuration not stated) |  | inconclusive: 79.4 µM [inhibitor, single point]
20 | O=C(COC(=O)c1ccc(S(=O)(=O)NCc2ccco2)cc1)NC1CCCCCC1 | inactive: 3.01% | 
21 | Cc1ccc(S(=O)(=O)c2nc(-c3ccccc3F)oc2N2CCCCC2)cc1 | inactive: -17.1% | 

Row | SMILES | activity change, negative = inhibition | Potency
22 | CC(C(=O)Nc1ccccc1C(=O)N1CCOCC1)N(c1ccc(Cl)cc1)S(C)(=O)=O (configuration not stated) |  | inconclusive: 5.01 µM [inhibitor, full curve]
23 | CN1CCN(NC(=O)c2ccc(Cl)cc2Cl)CC1 |  | inconclusive: 39.8 µM [inhibitor, single point]
24 | O=C(Nc1nncs1)c1cccc(S(=O)(=O)N2CCc3ccccc32)c1 |  | inconclusive: 7.08 µM [inhibitor, full curve, poor fit]
25 | C=C(C)C1CC=C(CN2CC(C)OC(C)C2)CC1 (configuration not stated) |  | inconclusive: 50.1 µM [inhibitor, partial curve, poor fit]
26 | O=C(c1cncc(Br)c1)N1CCN(c2ccc([N+](=O)[O-])cc2)CC1 |  | inconclusive: 39.8 µM [inhibitor, partial curve, poor fit]
27 | CC(C)Oc1c(Br)cc(Br)cc1/C=N/NC(N)=S |  | inconclusive: 35.5 µM [inhibitor, partial curve]
28 | CCC1CCCCN1CCCCOc1cccc(Cl)c1 (configuration not stated) |  | inconclusive: 70.8 µM [inhibitor, partial curve]
29 | CCN(CC)CCNc1ccc(C)c2sc3ccc(O)cc3c(=O)c12 |  | inconclusive: 50.1 µM [inhibitor, partial curve, poor fit]
30 | CN(C)Cc1cc(C(C)(C)c2cc(CN(C)C)c(O)c(CN(C)C)c2)cc(CN(C)C)c1O |  | inconclusive: 17.8 µM [inhibitor, partial curve, poor fit]
31 | CCN1CCSc2ccc(C(=O)NC(C)c3ccccc3)cc21 (configuration not stated) | inactive: 27.4% | 
32 | COCCn1c(C)cc(C(=O)CSc2cc(C)c3ccccc3n2)c1C |  | inconclusive: 50.1 µM [inhibitor, partial curve]
33 | COc1ccc2ccccc2c1-c1sc(Nc2ccccc2)n[n+]1-c1ccc(F)cc1 |  | inconclusive: 50.1 µM [inhibitor, partial curve]
34 | COC(=O)c1[nH]c2ccc(C)cc2c1NC(=O)CN1CCCc2ccccc21 |  | inconclusive: 17.8 µM [inhibitor, full curve, poor fit]
35 | CCOc1ccc(OCC(O)CN2CCN(S(=O)(=O)c3cccc(C(F)(F)F)c3)CC2)cc1 (configuration not stated) |  | inconclusive: 39.8 µM [inhibitor, partial curve]
36 | COc1ccc(Nc2nc(NCc3ccco3)nc(N/N=C/c3ccc(O)cc3)n2)cc1 | inactive: -15.2% | 
37 | CCOc1[nH]c(/N=C/c2ccc(OC)cc2)c(C#N)c1C#N |  | inconclusive: 39.8 µM [inhibitor, full curve]
38 | CCn1c2ccccc2c2cc(CN3CCN(C(=O)c4ccco4)CC3)ccc21 |  | inconclusive: 28.2 µM [inhibitor, single point]
39 | Oc1ccc(NCc2cccc(OCc3ccccc3)c2)cc1 |  | inconclusive: 44.7 µM [inhibitor, partial curve]
40 | CCC1CCCCN1S(=O)(=O)c1ccc([N+](=O)[O-])cc1 (configuration not stated) | inactive: -1.05% | 
41 | O=C(O)c1cccc(-c2ccc(/C=C3/SC(=Nc4ccccc4)N(Cc4cccnc4)C3=O)o2)c1 |  | inconclusive: 50.1 µM [inhibitor, partial curve]
42 | O=C(CCc1ccccc1)Nc1nn[nH]n1 |  | inconclusive: 39.8 µM [inhibitor, single point]

Reference: PubChem BioAssay AID540317 (National Center for Advancing Translational Sciences (NCATS), 2011)
